Laboratory results as given in paper PMC4336329 (PLoS ONE, 2015).
The campaign covered roughly 310,000 compounds. About 14,000 (4.5%) showed an effect of 50% or more. Effects have a minus sign here. Some of the results follow.

These molecules were tested against human ether-à-go-go-related gene (hERG) potassium channel (human, UniProt Q12809) (assay: primary screen, population patch clamp on CHO cells stably expressing hERG).
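Note: peak tail current of the secondary pulse compared with the same well before compound.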

human ether-à-go-go-related gene (hERG) potassium channel, sequence (Q12809 whole entry, looked up): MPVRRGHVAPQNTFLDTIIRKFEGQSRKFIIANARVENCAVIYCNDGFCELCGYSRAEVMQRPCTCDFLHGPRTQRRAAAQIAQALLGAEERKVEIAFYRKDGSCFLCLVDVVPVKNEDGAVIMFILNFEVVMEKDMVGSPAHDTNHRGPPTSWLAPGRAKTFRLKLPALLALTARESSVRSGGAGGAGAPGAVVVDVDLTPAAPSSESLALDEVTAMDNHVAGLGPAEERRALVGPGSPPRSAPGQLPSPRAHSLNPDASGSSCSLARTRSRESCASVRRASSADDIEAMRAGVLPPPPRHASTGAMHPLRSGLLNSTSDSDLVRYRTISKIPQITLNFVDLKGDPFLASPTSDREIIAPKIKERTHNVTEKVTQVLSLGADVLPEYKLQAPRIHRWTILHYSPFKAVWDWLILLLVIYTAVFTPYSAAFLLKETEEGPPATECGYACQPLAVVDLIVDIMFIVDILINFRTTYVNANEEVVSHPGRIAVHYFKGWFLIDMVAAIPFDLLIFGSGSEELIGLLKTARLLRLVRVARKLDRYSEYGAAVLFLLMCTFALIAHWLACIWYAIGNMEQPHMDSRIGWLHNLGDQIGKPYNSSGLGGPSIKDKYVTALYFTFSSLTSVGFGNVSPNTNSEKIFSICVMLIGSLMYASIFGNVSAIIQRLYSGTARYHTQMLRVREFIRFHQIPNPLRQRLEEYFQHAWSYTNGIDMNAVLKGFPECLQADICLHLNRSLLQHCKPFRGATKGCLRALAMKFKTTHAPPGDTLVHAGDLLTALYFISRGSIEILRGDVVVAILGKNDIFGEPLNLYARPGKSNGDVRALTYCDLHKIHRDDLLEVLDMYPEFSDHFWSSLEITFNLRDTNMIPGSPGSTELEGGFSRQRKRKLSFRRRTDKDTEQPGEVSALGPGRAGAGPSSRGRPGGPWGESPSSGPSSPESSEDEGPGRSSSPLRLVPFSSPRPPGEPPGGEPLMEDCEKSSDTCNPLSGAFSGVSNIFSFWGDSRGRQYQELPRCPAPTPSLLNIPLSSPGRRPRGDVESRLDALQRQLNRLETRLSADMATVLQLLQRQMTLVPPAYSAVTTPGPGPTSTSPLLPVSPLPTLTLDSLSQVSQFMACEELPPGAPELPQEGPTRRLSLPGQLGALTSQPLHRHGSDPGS

SMILES	hERG current change (%, negative = inhibition) at 10uM
CC(C)C[C@H](NC(=O)c1nc[nH]c1C(=O)N[C@@H](CC(C)C)C(=O)OC(C)(C)C)C(=O)OC(C)(C)C	21.9%
COC(=O)c1ccc(NC(=O)CSc2n[nH]c(-c3ccncc3)n2)cc1	-11.4%
C=C1c2cccc(O)c2C(O)=C2C(=O)[C@]3(O)C(O)=C(C(N)=O)C(=O)[C@@H](N(C)C)[C@@H]3[C@@H](O)[C@H]12.Cl	17.9%
CCSC1=NCCN1C(=O)c1ccc(S(=O)(=O)N(C)C)cc1	10.5%
Cc1onc(-c2ccccc2Cl)c1NC(=O)NCc1cccs1	6.48%
COc1ccc(-c2nc(CN3CCN(Cc4cccc(Cl)c4)CC3)c(C)o2)cc1	-33.1%
O=C(c1ccco1)N(Cc1ccc(Cl)cc1)C1CCS(=O)(=O)C1 (stereo not shown)	-11.6%
COC(=O)c1ccc(C(=O)OC)c(NC(=O)CCC(=O)O)c1	0.41%
Cc1ccc(NC(=O)Cn2nnc(-c3ccccc3NC(=O)c3cccs3)n2)cc1	21.7%
CCNC(=O)CSc1nnc(C2CC2)n1-c1ccccc1	11.8%
Cc1cc(C(=O)CC#N)c(C)n1-c1c(C)n(C)n(-c2ccccc2)c1=O	15.4%
Cc1ccccc1N(Cc1ccccc1F)S(C)(=O)=O	-8.54%
Clc1ccc2nc(N3CCCCC3)sc2c1	8.89%
CC(Oc1ccccc1)C(=O)NC1CCN(Cc2ccccc2)CC1 (stereo not shown)	-26.8%
COC(=O)c1c(NC(=O)CN2CCN(C(=O)c3ccco3)CC2)c2cc(C)ccc2n1C	-31.9%
COC(=O)Cc1cc(OC)c(OC)cc1S(=O)(=O)N(C)C	38.5%
S=C1NC2(CCCCC2)N=C1c1ccccc1	10.2%
Cc1ccc(NC(=S)Nc2cccnc2)c(S(=O)(=O)N2CCCCC2)c1	-3.48%
Cc1cccc(C)c1OCc1cc(C(=O)N2CCC(c3ccccc3)CC2)no1	-1.95%
CN(C1CCCCC1)S(=O)(=O)c1ccc(=S)[nH]c1	17.4%
CCCCCCSC1=C(C#N)C(c2ccccc2)CC(=O)N1 (stereo not shown)	-2.01%
O=C(NCc1cc(C(F)(F)F)cc(C(F)(F)F)c1)C1CC(c2ccccc2[N+](=O)[O-])=NO1 (stereo not shown)	-18.6%

SMILES	hERG current change (%, negative = inhibition) at 10uM
CCOCCCNC(=O)C1CCCN(S(=O)(=O)c2ccc(-n3cnnn3)cc2)C1 (stereo not shown)	-32.6%
CCN(CC)S(=O)(=O)c1cc(Br)ccc1OC	-0.441%
CCOC(=O)c1cnc(SCC(=O)N2CCN(c3ccccc3)CC2)nc1N	-28.8%
COc1ccccc1NC(=O)CSc1n[nH]c(-c2cccnc2)n1	7.07%
O=C(CNC(=O)c1ccc(Br)o1)OCc1ccc(Br)cc1	-8.22%
CCOc1ccc(N(CC(=O)NCc2ccc(OC)cc2)C(=O)CCC(=O)Nc2nccs2)cc1	8.55%
COc1ccccc1N1CCN(CCN2C(=O)CC3(CCCC3)CC2=O)CC1.Cl	-16.9%
CC(C)(C)c1ccc(NC(=O)Nc2ccc(F)cc2)cc1	19%
Cc1ccc(NC(=O)CCl)cc1S(=O)(=O)N1CCCCCC1	-49.7%
Cc1ccc(N2CCN(/N=C/c3cccnc3)CC2)cc1	-7.29%
CCc1nn(C(C)C(=O)N2CCc3ccccc3C2)c(=O)c2cc3occc3n12 (stereo not shown)	-23.1%
COc1ccc(CCNCC(O)COc2ccc(Cl)cc2)cc1OC.Cl (stereo not shown)	-72.1%
CCC(C)[C@H](N)C(=O)NCC1CCC(C(=O)N[C@@H](Cc2ccccc2)C(=O)O)CC1.Cl (stereo partly shown)	18.3%
S=C(c1ccc(OCc2ccccc2)cc1)N1CCCC1	11.9%
NS(=O)(=O)c1ccc(CNC(=O)CSc2ccccc2)cc1	14.5%
Cc1cc(Br)ccc1SCC(=O)OCC(=O)Nc1ncc(C(F)(F)F)cc1Cl	13.7%
COc1ccc(CSc2cccc3cccnc23)cc1[N+](=O)[O-]	1.59%
CC(C)(C)NC(=O)CCCCCCCC(=O)NC(C)(C)C	39.1%
Nn1c(SCC(=O)NCc2ccc3c(c2)OCO3)nnc1C1CC1	10.2%
Cc1ccc(Cl)cc1N1CCN(C(=O)C2CCN(c3nnc(-n4cccc4)s3)CC2)CC1	-16.4%
CC(C)(C)c1ccc(C(=O)NCC(=O)OCN2C(=O)c3ccccc3C2=O)cc1	-8.89%
CC(CCc1ccccc1)NC(=O)COC(=O)c1ccccc1Br (stereo not shown)	-1.76%

SMILES	hERG current change (%, negative = inhibition) at 10uM
O=C1c2ccccc2C(=O)N1CCC#Cc1ccc2cc(C3(O)CCCCC3)oc(=O)c2c1	-4.6%
Cc1ccc(C(=O)Nc2cccc(N3C(=O)C4CCC(C)CC4C3=O)c2)cc1 (stereo not shown)	-2.53%
COC(=O)[C@@H]1C[C@@]2(O)[C@H](O)[C@H](O)[C@H](O)C[C@H]2N1Cc1ccccc1OS(=O)(=O)c1ccc(C)cc1	-5.21%
Cc1ccc(-c2csc(NC(=O)c3c(C)noc3C)n2)cc1	-31.7%
CCOc1ccccc1NC(=O)CCC(=O)O	-13.9%
O=C1OC(c2ccc(Br)cc2)=N/C1=C\N1CCCCC1	22%
COc1ccccc1CNc1cc(-c2ccccc2)ccc1OC	5.86%
Cc1cccc(OCCNC(=O)CCNS(=O)(=O)c2ccc3ccccc3c2)c1	-14.8%
Cc1ccc(-c2cc(C(F)F)n3ncc(C(=O)NCc4ccco4)c3n2)cc1	-0.82%
CCN1C(=O)CC(NNC(=O)c2ccccc2)C1=O (stereo not shown)	-20.1%
CCCn1c(N)c(N(CCOC)C(=O)c2cc(S(=O)(=O)N3CCCCCC3)ccc2OC)c(=O)[nH]c1=O	-8.95%
O=C(NCCc1ccccc1)C1CCCN1C(=O)Nc1ccc(F)cc1 (stereo not shown)	0.314%
Cc1ccc(C(=O)COC(=O)c2cccc(N3C(=O)c4c(C)nc5ccccc5c4C3=O)c2)cc1C	-3.35%
O=C1c2ccccc2C(=O)N1CCc1nn[nH]n1	17%
O=C(Nc1ccon1)c1csc2ccccc12	4.41%
COc1ccc(CCCc2n[nH]c(=S)o2)cc1	13.7%
CC(OC(=O)C1=Cc2ccccc2OC1)C(=O)NCc1ccco1 (stereo not shown)	-26.3%
CCc1nc(C)cn1S(=O)(=O)c1ccc([N+](=O)[O-])cc1	1.04%
Cc1ccc(N(C(=O)Cn2nnc3ccccc32)C(C(=O)NCc2ccccc2)c2ccccn2)cc1 (stereo not shown)	-45.5%
CC1CCCN(C(=O)COC(=O)c2ccc(=O)n(Cc3ccccc3)n2)C1 (stereo not shown)	-2.06%
CCN(CCn1cccn1)C(=O)CCc1nnc(Cc2c[nH]c3ccccc23)o1	0.476%
CCCn1c(/N=C/c2ccccc2O)nc2ccccc21	13.6%

SMILES	hERG current change (%, negative = inhibition) at 10uM
Cn1c(=O)c2c(nc(SCCN3CCOCC3)n2Cc2ccc(F)cc2)n(C)c1=O	-56%
Cc1cc(C)nc(NC(=O)CSc2nnnn2-c2ccccc2)n1	-12.3%
CSCCC(N=CC1=C(O)CC(C)(C)CC1=O)C(=O)O (stereo not shown)	5.97%
COC(=O)C1CSC(C)(C)C(=O)N1 (stereo not shown)	4.6%
CCOC(=O)N1CCC(Nc2c(NCCCN(CC)c3cccc(C)c3)c(=O)c2=O)CC1	-22%
O=S(=O)(NCCc1cccs1)c1ccc(Br)cc1	-15.7%
CCOc1ccc(-c2nnn(CC(=O)NCc3ccco3)n2)cc1OCC	-3.89%
COC(=O)c1cc(=O)n(CCc2ccccc2F)c(=Nc2ccc(F)c(Cl)c2)s1	14.1%
C[N+]1(CCN2C(=O)C3CC=C(Cl)CC3C2=O)CCOCC1.[Br-] (stereo not shown)	4.11%
CN(C(=O)c1ccco1)c1nc(-c2ccccc2)cs1	7.97%
COc1ccc(NC(=O)c2ccc(Cl)c(S(=O)(=O)N3CCc4ccccc4C3)c2)cn1	-46.8%
O=C(Nc1nc2ccsc2c(=O)s1)C1CCC1	7.03%
Cc1ccccc1-n1c(SCC(=O)N/N=C/C=C/c2ccccc2[N+](=O)[O-])nc2ccccc2c1=O	17.5%
CCCN1C(=O)C(Cc2nc3ccccc3c(=O)n2C)c2ccccc21 (stereo not shown)	-12.8%
Cc1ccc(NS(=O)(=O)c2cc(N)ccc2Cl)c(C)c1	6.64%
O=C(CCl)Nc1ccc(N2CCCCCC2)cc1	4.41%
CCOC(=O)c1cn(CC)c2c(ccc3ccccc32)c1=O	15.5%
O=C(COC(=O)c1ccc2c(c1[N+](=O)[O-])C(=O)c1ccccc1C2=O)NC1CC1	14.6%
COc1cc(CNCc2ccc(OC)c(OC)c2OC)cc(OC)c1	-7.28%
COc1ccccc1N1CCN(Cc2cc(=O)c(OCC(=O)NC(C)C)co2)CC1	13.2%
CCCSc1nc2c(c(=O)[nH]c(=O)n2C)n1Cc1ccccc1	-17.4%
Cc1ccc(-c2csc3nc(CSc4nnc(-c5ccc(Cl)cc5)n4C)[nH]c(=O)c23)cc1	-16.7%
